According to PubChem BioAssay AID651820 (National Center for Advancing Translational Sciences (NCATS), 2012):
Hit rate of the full screen: of about 340,000 compounds, about 12,000 (3.5%) were called active. The inconclusive results got no clear call from the source; some entries with a clear call stand among them for comparison. The call rests on the fitted dose curve; in most records, active means well fitted inhibition curve with a large enough effect; inconclusive means small, poorly fitted or top-dose-only effect, or another doubt; inactive means no such curve, though single readings can be large or run the other way. Potencies of inconclusive entries are left out as doubtful fits.
On the % scale 0 is the no-effect control and ±100 the full control effect; potency means the concentration at half of the fitted maximal effect; tags describe the fitted curve by direction and shape.

Test: qHTS Assay for Inhibitors of Hepatitis C Virus (HCV)
Settings: Huh7.5.1 HCVcc-Cre (HCVcc is cell-culture hepatitis C virus) infection, luciferase reporter, 44 h; activity change, negative = inhibition: at 41.8 µM (top of the series) unless noted
In short: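 A cell-based infection assay in which seeded cells (1,000 per well) receive test compound after 4 h, are inoculated with HCVcc-Cre at approximately 0.5 moi, and are incubated 44 h before luminescence detection.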
With `Cc1ccc(-c2n[nH]c(=S)n2/N=C/C=C/c2ccccc2[N+](=O)[O-])cc1` the “activity change, negative = inhibition” value was inactive: 17.6%. With `CCOC(=O)C1CCN(C(=O)c2ccc(C)o2)CC1` the “activity change, negative = inhibition” value was inactive: 6.4%. For `Cc1nn(C)c(C)c1CNC(=O)/C=C/c1ccccc1F`, the Potency was inconclusive [inhibitor, single point]. With `O=C1CN(C(=O)Cn2ncc(Cl)c(Cl)c2=O)c2ccccc2N1` the Potency was active: 5.62 µM. For `CCc1ccc2nc(N(CCN(C)C)C(=O)c3ccc4ccccc4c3)sc2c1`, the Potency was inconclusive [inhibitor, single point]. For `COc1cc2ccccc2cc1C(=O)OCc1nc2ccsc2c(=O)[nH]1`, the “activity change, negative = inhibition” value was inactive: -20.3%. For `Cn1cccc1/C=C1\SC(=O)N(CC(=O)Nc2ccc(Cl)cc2)C1=O`, the Potency was inconclusive [inhibitor, single point]. With `COc1cc(CNCC(C)C)cc(Br)c1OCC(=O)Nc1ccccc1` the Potency was inconclusive [inhibitor, partial curve]. With `CC(C)C(=O)c1cn(Cc2ccc(C#N)cc2)c2ccccc12` the Potency was inconclusive [inhibitor, partial curve]. With `CC(=O)N(/N=C1/C(=O)Nc2ccccc21)c1ccccc1` the “activity change, negative = inhibition” value was inactive: -5.42%. For `Cn1cc(CN2CCCC(C(=O)Nc3ccc(-c4cccc(F)c4)cc3)C2)cn1` (stereo not given), the Potency was inconclusive [inhibitor, partial curve, poor fit]. For `O=C(CSC(=S)N1CCOCC1)N1N=CCC1c1ccccc1` (stereo not given), the “activity change, negative = inhibition” value was inactive: -1.29%. For `Nc1nnc(-c2cn(-c3ccccc3)nc2-c2ccccc2)o1`, the Potency was inconclusive [inhibitor, single point]. In the case of `CC(C)c1ccc(O)c(NC(=O)c2cncc(Br)c2)c1`, the “activity change, negative = inhibition” value is reported as inactive: -14.5%. For `CCn1nc(NC(=O)CC(C)C)c2cc3ccc(C)cc3nc21`, the Potency was inconclusive [inhibitor, single point]. For `NC(=O)c1ccc(NC(=O)c2ccc3c(c2)CCN3S(=O)(=O)c2ccccc2)cc1`, the Potency was inconclusive [inhibitor, single point]. In the case of `Cc1nc(C)c(C(=O)NCc2ccc(Cl)cc2)o1`, the Potency is reported as inconclusive [inhibitor, single point]. With `COc1ccccc1C1(O)CCN(C(=O)c2cccs2)CC1` the “activity change, negative = inhibition” value was inactive: 23.2%. With `O=C(Nc1ccccc1)N1CCN(C2c3ccccc3-c3ccccc32)CC1` the Potency was inconclusive [inhibitor, single point]. For `Cc1cc(-c2csc(NC(=O)c3ccccc3C(F)(F)F)n2)c(C)n1Cc1ccccc1`, the Potency was inconclusive [inhibitor, full curve, poor fit]. With `Cc1cc2nsnc2c(S(=O)(=O)N2CCN(C)CC2)c1C` the “activity change, negative = inhibition” value was inactive: -0.585%. In the case of `Cc1ccc(CNc2ncnc3cc(Cl)ccc23)cc1`, the Potency is reported as active: 11.2 µM. With `COC(=O)c1cn(C(=O)c2cc(Br)ccc2Cl)c2ccccc12` the “activity change, negative = inhibition” value was inactive: 12.8%. For `COc1cccc(CNc2ccc3c(c2)nc(C)n3C)c1OC`, the “activity change, negative = inhibition” value was inactive: 6.51%. For `CC(C)C(NC(=O)c1c(F)cccc1F)C(=O)N1CCN(c2ccccc2F)CC1` (stereo not given), the “activity change, negative = inhibition” value was inactive: 18.5%. With `Cc1onc(-c2ccccc2)c1C(=O)N/N=C/C(Br)=C/c1ccccc1` the Potency was inconclusive [inhibitor, partial curve, poor fit]. In the case of `Cc1noc(C)c1COC(=O)/C=C/c1ccccc1Cl`, the Potency is reported as inconclusive [inhibitor, single point]. In the case of `COc1ccc(-c2cc(C3CCN(Cc4cccc(C(F)(F)F)c4)CC3)[nH]n2)cc1`, the Potency is reported as inconclusive [inhibitor, full curve]. In the case of `O=C(CCN1CCCCCC1)Nc1cccc(F)c1`, the Potency is reported as inconclusive [inhibitor, partial curve]. With `COc1ccc(C(=O)COC(=O)c2cccc(-n3cnnn3)c2)c(OC)c1` the Potency was inconclusive [inhibitor, single point]. In the case of `O=Nc1c(-c2c(O)[nH]c3cc(Br)ccc23)[nH]c2ccccc12`, the Potency is reported as active: 5.62 µM. With `Brc1cccc(-c2cnc3n2CCCCC3)c1` the Potency was inconclusive [inhibitor, partial curve]. In the case of `COc1ccc(NC(=O)c2sc3nc(C)cc(C)c3c2N)cc1`, the Potency is reported as inconclusive [inhibitor, single point]. In the case of `COc1ccc(/C=C/C(=O)OCC(=O)c2c(N)n(C)c(=O)n(C)c2=O)c(OC)c1`, the Potency is reported as inconclusive [inhibitor, partial curve]. With `CN1CCN(CCC(=O)Nc2ccc(C3CCCC3)cc2)CC1` the Potency was inconclusive [inhibitor, single point]. For `O=C(CSc1nnc(CNC(=O)c2cccs2)o1)c1ccc(Cl)cc1`, the Potency was inconclusive [inhibitor, single point]. With `COc1ccc(NC(=O)CSc2nnc(-c3cccnc3)n2C)cc1` the “activity change, negative = inhibition” value was inactive: 13.5%. In the case of `CCC1(O)C(=O)OCc2c1cc1n(c2=O)Cc2cc3c(N)cccc3nc2-1` (stereo not given), the Potency is reported as inconclusive [inhibitor, full curve, poor fit]. With `CCOC(=O)C1CCN(c2c(Nc3ccc4c(c3)OCCO4)c(=O)c2=O)CC1` the Potency was “inactive”. For `Cc1ccccc1-c1cccc([C@@H]2C[C@H]3[C@H](CON3C)CN2C(=O)C(C)(C)C)c1`, the “activity change, negative = inhibition” value was inactive: 1.32%. For `Cc1ccsc1/C=N/NC(=O)CNC(=O)c1ccccc1`, the Potency was inconclusive [inhibitor, single point]. With `COc1cccc(-c2nn(-c3ccc(C)cc3)cc2C(=O)NCC(c2cccs2)N2CCOCC2)c1` (stereo not given) the Potency was inconclusive [inhibitor, single point]. In the case of `CN(C)S(=O)(=O)Oc1cccc(C(=O)Nc2ccc([N+](=O)[O-])cc2)c1`, the Potency is reported as inconclusive [inhibitor, full curve]. With `COC(=O)C1=C(c2cc3ccccc3s2)C[C@@H]2CC[C@H]1N2C(=O)NCCCOC(C)C` the Potency was inconclusive [inhibitor, single point]. For `CCn1c(SCC(=O)Nc2ccc3c(c2)OCO3)nc2c1c(=O)n(C)c(=O)n2C`, the “activity change, negative = inhibition” value was inactive: 11.7%. In the case of `C/C(=N/Oc1nc(C)cc(C)n1)c1ccc(Br)cc1`, the Potency is reported as inconclusive [inhibitor, single point]. With `O/N=C/c1cc(Br)ccc1OCc1ccc(F)cc1` the Potency was inconclusive [inhibitor, single point]. For `CCCCCCn1c(N)c(C(=O)NCCN2CCOCC2)c2nc3ccccc3nc21`, the Potency was inconclusive [inhibitor, single point]. For `CCOC(=O)C1=C(c2ccccc2)NC(SCC(=O)Nc2ccc(C)cc2)=C(C#N)C1c1ccco1` (stereo not given), the Potency was inconclusive [inhibitor, single point]. In the case of `O=C(Nc1sc(-c2ccccc2)cc1C(=O)O)c1ccccc1`, the “activity change, negative = inhibition” value is reported as inactive: 4.68%. For `Clc1ccc(N/N=C/c2ccncc2)cc1Cl`, the Potency was inconclusive [inhibitor, single point]. With `CC(=O)Nc1ccc(NC(=O)c2ccc([N+](=O)[O-])cc2Cl)cc1` the “activity change, negative = inhibition” value was inactive: 14.5%. With `CC(C)CNC(=O)COC(=O)c1c2c(nc3ccccc13)/C(=C\c1cccs1)CC2` the Potency was inconclusive [inhibitor, full curve]. With `O=Cc1cc(N=Nc2ccc(S(=O)(=O)O)cc2)ccc1O` the Potency was inconclusive [inhibitor, single point]. With `C/C(=N\Nc1ccc(F)cc1F)c1ccc(N2CCOCC2)cc1` the Potency was inconclusive [inhibitor, single point]. In the case of `Cc1ccc(NC2=CC(=O)CC(c3ccc(Cl)cc3)C2)cc1` (stereo not given), the “activity change, negative = inhibition” value is reported as inactive: -10.7%. With `Cc1ccc(C(=O)Nc2scc(-c3ccccc3)c2C(=O)O)cc1` the “activity change, negative = inhibition” value was inactive: 23.4%. With `COc1ccc(NC(=O)CN(c2ccccc2OC)S(=O)(=O)c2cccs2)cc1Cl` the Potency was inconclusive [inhibitor, partial curve]. With `O=S(=O)(Nc1nc2ccccc2nc1Nc1ccc2c(c1)OCO2)c1ccccc1` the Potency was inconclusive [inhibitor, full curve]. For `COc1ccccc1Sc1nc(-c2ccccc2)ncc1OC`, the Potency was inconclusive [inhibitor, partial curve]. For `Cc1cccc(NC(=S)N=Nc2c(O)[nH]c3ccccc23)c1`, the Potency was inconclusive [inhibitor, single point]. For `Cc1cccc(C)c1NC(=S)N=Nc1c(O)n(C)c2ccc(S(=O)(=O)N3CCOCC3)cc12`, the Potency was inconclusive [inhibitor, single point]. With `O=C(Nc1ccc(S(=O)(=O)NC2=NCCCCC2)cc1)c1ccc([N+](=O)[O-])s1` the Potency was inconclusive [inhibitor, partial curve, poor fit]. With `CC(=O)c1c(C)oc2ccc(N(C(=O)c3ccncc3)S(=O)(=O)c3ccccc3)cc12` the Potency was inconclusive [inhibitor, full curve]. For `C=CCOc1c(Br)cc(CNn2c(C)n[nH]c2=S)cc1OC`, the “activity change, negative = inhibition” value was inactive: -23.7%. In the case of `Cc1cc2c(cc1S(=O)(=O)N1CCN(c3ccc(Cl)cc3)CC1)OCCN2C`, the Potency is reported as inconclusive [inhibitor, single point]. For `CCOc1cc(N2CCOCC2)c(OCC)cc1NC(=O)COC(=O)c1cc2ccccc2cc1O`, the Potency was inconclusive [inhibitor, full curve]. For `CCCCC(=O)NNC(=S)NC(=O)c1cccc([N+](=O)[O-])c1`, the Potency was inconclusive [inhibitor, full curve, poor fit]. For `COc1cc(CNCCSc2nnnn2C)cc(Br)c1OCc1ccccc1`, the Potency was inconclusive [inhibitor, partial curve]. With `CC(=O)Nc1ccc(C(=O)OCc2ccc(Cl)c(Cl)c2)cc1` the Potency was inconclusive [inhibitor, partial curve, poor fit].
